Measurements taken from PubChem BioAssay AID894 (National Center for Advancing Translational Sciences (NCATS), 2007).
Values joined by “and” are separate entries in the source; they are usually repeats but may differ in a detail not shown here. Equal values may be shown once. Screen size: about 150,000 compounds; about 6,500 (4.3%) were called active. This list was built around the results that the source calls inconclusive (neither active nor inactive); the mix of calls is not that of the screen. Calls follow the shape of the dose curve; as a rule, active = well fitted inhibition curve with a large enough effect (not every such curve was filed as active); inconclusive = small, poorly fitted or top-dose-only effect, or another doubt; inactive = no such curve, though single readings can be large or run the other way. A potency beside an inconclusive call is a rough fit, not a confirmed value.

What follows are compounds tested against 15-hydroxyprostaglandin dehydrogenase [NAD(+)] (Homo sapiens) (UniProt P15428) (assay: qHTS Assay for Inhibitors of HPGD (15-Hydroxyprostaglandin Dehydrogenase)). Conditions: purified HPGD, NADH fluorescence kinetic, PGE2 substrate; activity change, negative = inhibition: hits give low values.
Chain of UniProt P15428 (P15428 whole entry, looked up): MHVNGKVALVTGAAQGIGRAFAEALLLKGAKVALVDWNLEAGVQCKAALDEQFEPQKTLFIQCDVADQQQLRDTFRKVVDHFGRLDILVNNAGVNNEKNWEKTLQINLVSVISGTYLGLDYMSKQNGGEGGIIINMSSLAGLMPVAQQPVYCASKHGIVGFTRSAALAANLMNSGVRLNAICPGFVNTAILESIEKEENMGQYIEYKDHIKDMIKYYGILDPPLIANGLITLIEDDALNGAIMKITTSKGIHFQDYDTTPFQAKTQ
In short: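 NADH formation kinetics: reaction with 30 uM PGE2 and 1 mM NAD+ (final), 20 nM enzyme, Tris-HCl pH 8 with Tween 20, after 15 min compound preincubation at room temperature. Fluorescence change, last versus first of five reads.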
% is scaled to controls: 0 for no effect and ±100 for the full control effect; potency is read from the fitted curve at half-maximal effect; tags tell the direction and shape of the fitted curve.

Row | Structure (SMILES) | Potency | activity change, negative = inhibition
1 | CC1CC(C)(C)NC(=S)S1 (stereo not drawn) | active: 22.4 µM | 
2 | Cc1nc(NC(=O)c2ccccc2)sc1-c1csc(Nc2cccc(Cl)c2)n1 | inconclusive: 31.6 µM [inhibitor, partial curve] | 
3 | CCOC(=O)c1c(N)sc(C(C)=O)c1C | inconclusive: 28.2 µM [inhibitor, single point] | 
4 | Cc1ccc(-c2nc3ncccc3o2)cc1NC(=O)CC(C)C | inconclusive: 10 µM [inhibitor, partial curve] | 
5 | COc1ccc(-c2cc(-c3ccccc3)c(C#N)c(S(C)(=O)=O)n2)cc1 | inconclusive: 35.5 µM [inhibitor, partial curve] | 
6 | CN(Cc1ccccc1)Cc1nc2c(c(=O)n(C)c(=O)n2C)n1CCCc1ccccc1 |  | inactive: -5%
7 | CCOc1ccc(-n2c(N)c(-c3nc4ccccc4n3C)c3nc4ccccc4nc32)cc1 | inconclusive: 22.4 µM [inhibitor, single point] | 
8 | O=C(Nc1ccc(N2CCOCC2)cc1)c1cccc(S(=O)(=O)N2CCCC2)c1 |  | inactive: -15.9%
9 | Cc1ccc(Cl)cc1N1CCN(C(=O)c2cc3c(=O)[nH]c4ccccc4c3n2C)CC1 | inconclusive: 39.8 µM [inhibitor, single point] | 
10 | CC(=O)c1nc2ccccc2n1S(=O)(=O)c1ccc(C)cc1 | inconclusive: 31.6 µM [inhibitor, partial curve] | 
11 | COc1ccc(Cl)cc1Nc1nc(C)cc(C)c1C(N)=O | inconclusive: 39.8 µM [inhibitor, partial curve, poor fit] | 
12 | CCOC(=O)c1ccccc1NC1CC(=O)N(c2ccccc2C)C1=O (stereo not drawn) | inconclusive: 28.2 µM [inhibitor, partial curve] | 
13 | CN(C)C(=O)Nc1ccc(F)cc1F |  | inactive: -5.6%
14 | CCS(=O)(=O)n1nc(-c2ccc(Cl)cc2)nc1SC | active: 12.6 µM | 
15 | CCOC(=O)C1CCN(c2cc(C)nc3cc(-c4cccc(F)c4)nn23)CC1 | inconclusive: 28.2 µM [inhibitor, partial curve] | 
16 | O=C(Nc1nc(=S)ss1)c1ccc(Cl)cc1Cl | active: 22.4 µM | 
17 | Cc1nc2ccccc2nc1OCC(=O)Nc1cc(C(F)(F)F)ccc1N1CCOCC1 | inconclusive: 35.5 µM [inhibitor, partial curve, poor fit] | 
18 | CC(C)=C1C(=O)NN(c2cccc(Cl)c2)C1=O | active: 7.94 µM | 
19 | COc1ccc(OC)c2c(C)cc(N3CCN(C(=O)c4ccc(Cl)cc4)CC3)nc12 | inconclusive: 39.8 µM [inhibitor, single point] | 
20 | O=C(NCCc1cn2ccsc2n1)c1cccs1 | active: 25.1 µM | 
21 | COc1ccc(-n2nnc3c(=O)n(CC(=O)N4CCCc5ccccc54)cnc32)cc1 | inconclusive: 28.2 µM [inhibitor, single point] | 
22 | CCn1c(SCC(=O)Nc2nonc2C)nnc1-c1ccco1 | inconclusive: 39.8 µM [inhibitor, single point] | 

Row | Structure (SMILES) | Potency | activity change, negative = inhibition
23 | Cc1cc(=O)oc2c(CN3CCC(C)CC3)c(O)c(Cl)cc12 | inconclusive: 8.91 µM [inhibitor, full curve] | 
24 | N#Cc1c(-c2cccs2)cc(-c2ccccn2)nc1N | inconclusive: 6.31 µM [inhibitor, partial curve] | 
25 | O=C(/C=C/c1ccco1)c1ccc(NC(=O)C23CC4CC(CC(C4)C2)C3)cc1 | inconclusive: 28.2 µM [inhibitor, single point] | 
26 | COC(=O)C1(C)NC(=O)c2ccccc2N1 (stereo not drawn) | inconclusive: 28.2 µM [inhibitor, partial curve] | 
27 | Clc1ccc(-c2nnc(-c3ccco3)o2)cc1 | inconclusive: 20 µM [inhibitor, partial curve] | 
28 | CCn1c(=S)[nH]c2nc3c(cc2c1=O)CCCC3 |  | inactive: -6.2%
29 | FC(F)(F)c1cccc(CNc2ncccc2-c2nc3cc(Cl)ccc3o2)c1 | inconclusive: 28.2 µM [inhibitor, partial curve] | 
30 | Cc1cc2cc3c(cc2nc1SCc1ccc(C(=O)O)cc1)OCCO3 | inconclusive: 28.2 µM [inhibitor, partial curve] | 
31 | Cc1ccc(-c2nn(-c3ccccc3)cc2C2CC(c3cccs3)=NN2C(=O)CCC(=O)O)cc1 (stereo not drawn) | inconclusive: 31.6 µM [inhibitor, single point] | 
32 | Cc1ccc(NC(=S)Nc2ccc(C(C)C)cc2)cc1S(=O)(=O)N1CCCCCC1 | inconclusive: 39.8 µM [inhibitor, single point] | 
33 | COCCn1c(=N)c(C(=O)NCCc2ccc(OC)cc2)cc2c(=O)n3cccc(C)c3nc21 | inconclusive: 35.5 µM [inhibitor, single point] | 
34 | O=C(Nc1ccccc1)c1ccc(Cc2nc3ccccc3[nH]2)cc1 |  | inactive: -2.59%
35 | Cc1csc(SCC(=O)Nc2ccc(S(=O)(=O)N3CCCC3)cc2)n1 |  | inactive: -17.8%
36 | Cc1ccccc1N1CCN(c2ncnc3c2cnn3Cc2ccc(Cl)cc2)CC1 | inconclusive: 28.2 µM [inhibitor, single point] | 
37 | CCOc1ccc(S(=O)(=O)Nc2ccccc2C(=O)NCc2ccco2)cc1 | inconclusive: 22.4 µM [inhibitor, partial curve] | 
38 | COc1ccc2c(c1OC)C(=O)OC2CC(=O)c1ccc(O)c(O)c1 (stereo not drawn) | inconclusive: 31.6 µM [inhibitor, single point] | 
39 | COc1ccc(N2C(=O)c3ccccc3NC23CCC(C)CC3)cc1 (stereo not drawn) | inconclusive: 31.6 µM [inhibitor, partial curve] | 
40 | CC(C)N(CCC(=O)c1ccc2ccccc2c1)Cc1ccccc1 | inconclusive: 22.4 µM [inhibitor, partial curve] and inconclusive: 22.4 µM [inhibitor, single point] | 
41 | Cc1ccc(-n2c(SCC(=O)NCc3ccco3)nc3sc(C)c(C)c3c2=O)cc1 | inconclusive: 25.1 µM [inhibitor, partial curve] | 
42 | COc1ccc(Cn2c(=O)oc3ccc(C)cc32)cc1OC |  | inactive: -7.42%
43 | COc1cccc(NC(=O)Cc2nc(-c3ccccc3)sc2-c2ccc(C)cc2)c1 | inconclusive: 39.8 µM [inhibitor, partial curve, poor fit] | 
